# Source: the supplement of paper PMC3334620
# Over roughly 33,000 sequences, “E-score (-0.5 to 0.5)” has its median near -0.054; the highest 2% begin near 0.39. Some of the results follow.
# Target: Ylr278c (UniProt Q05854)
# Test: PBM E-score (8-mer binding enrichment) (E-score (-0.5 to 0.5)); higher = stronger / more preferred TF binding; most listed sequences are background and not binding sites
# Settings: protein concentration: 200 nM; construct: GST-DNA-binding domain
# Procedure, shortened: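 GST-tagged yeast TFs (full-length or DNA-binding domain) were made by PURExpress in vitro transcription/translation and applied at about 100-200 nM to universal all-10-mer Agilent arrays. The arrays were made double-stranded by primer extension, on fresh or once-stripped slides. Bound protein was detected with fluorescent anti-GST, and scans were normalised with masliner. Each ungapped eight-base word, pooled with its reverse complement, received an E-score (modified Wilcoxon-Mann-Whitney statistic) from the Universal PBM Analysis Suite.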
row,Sequence,PBM E-score
1,AGCGGGCG,0.111
2,ACCCGTAT,0.0066
3,GCGTCTAC,-0.0829
4,AGATTCTA,-9e-05
5,AATTAAAC,0.0285
6,CAAAGTAC,-0.303
7,CACGAATA,-0.202
8,AGGCTTAG,-0.152
9,GCAAGGAA,0.035
10,AGATGGGC,0.115
11,TAGTAATA,-0.158
12,ACTACCAT,-0.233
13,ACTAGGGA,-0.13
14,AAGCTTAT,-0.103
15,AACAACAC,-0.0906
16,AAGAGACT,-0.101
17,CCATTCGG,0.107
18,CTCGGTAA,0.0905
19,AGATATCT,-0.165
20,CGAAACCA,-0.0177
21,ACCGATAT,0.0583
22,CATCAATA,-0.128
23,AACATTAC,-0.106
24,CGAACCCG,0.224
25,CAATAGGA,-0.115

row,Sequence,PBM E-score
1,ACAAACGC,0.0734
2,ACGCCGAA,0.336
3,GTTAAGTA,-0.13
4,CTCATATA,-0.0765
5,CGCATCCC,0.0915
6,AATATCGA,-0.0141
7,CACGGGAG,-0.0623
8,CAGCCGAA,0.0307
9,ACGGGCCT,0.117
10,CGCCGGTA,0.352
11,AAACTATT,0.0142
12,GATCCGGC,0.407
13,CGCGAAAC,0.165
14,CGTACGTA,-0.212
15,AGCGCAGA,-0.072
16,GCATTCCA,-0.0889
17,ATGGTGAA,0.056
18,AAAACTAA,-0.0865
19,CTGATGCA,-0.168
20,ATGAATCC,-0.0186
21,ATCTTTAG,-0.0697
22,CCACTCGG,0.134
23,TATACGCA,0.0919
24,AGTCGCGC,0.193
25,CCGATGAC,0.299

row,Sequence,PBM E-score
1,CGTCCTGC,-0.151
2,CGATGACC,0.183
3,ACAGCGAT,-0.0558
4,ACCAATTC,0.0245
5,CGGCTCCA,0.155
6,ATTCCGCC,0.418
7,CAAACAGA,-0.08
8,CCAGTGCG,-0.0115
9,CATGTTGC,-0.0404
10,ATCTAGGA,-0.0971
11,ATGATAAG,-0.0364
12,AATAAGGT,0.0972
13,ACAAGCGT,-0.189
14,CCAACCCA,-0.161
15,ATTCAGGC,-0.121
16,CCACGGTC,-0.157
17,ACGACCAT,-0.302
18,AAAGGCGA,-0.234
19,GGCGCTAC,-0.0688
20,ACACGGTG,0.0947
21,CGGATCGA,0.19
22,GTGCATCA,-0.165
23,AGAGCGTC,-0.285
24,GGCAGCTA,-0.109
25,AGGTCAAT,-0.205

row,Sequence,PBM E-score
1,CAGCCAAC,-0.0434
2,CTATATAA,-0.288
3,CAGAACTG,-0.0814
4,AATATTCT,-0.0411
5,AGCGGTAT,0.0951
6,CGGACCCA,0.332
7,AAGGCAGG,-0.0925
8,AACGTGAG,-0.24
9,ACTGTACA,-0.38
10,TAAAAAAA,-0.0419
11,GGTTGAGA,0.157
12,TATCTGGA,-0.0948
13,ACTTCTAC,-0.164
14,CGCCGACA,0.281
15,CACGCCGC,0.151
16,AGCGTGTC,-0.234
17,ATTCCTAG,-0.0912
18,ACGGCTTG,-0.0376
19,CGGTGTGC,0.102
20,ACACCAAT,0.00077
21,ACCAGGAT,-0.0342
22,CCTCCGGC,0.448
23,CTATATGA,-0.0348
24,TCCTGACA,-0.164
25,CCTCTACG,-0.249

row,Sequence,PBM E-score
1,GCAGATCA,-0.14
2,ATTATAGG,0.121
3,AAACCAAC,-0.0742
4,CAAGTGCA,-0.362
5,ATCGTATA,-0.00578
6,AATTACAC,0.0834
7,GCAATTAC,0.0799
8,TAATCAAA,0.112
9,AAACCTAT,-0.23
10,CAATAAGG,-0.12
11,ACTGACCA,-0.254
12,ATGGCGGC,0.217
13,AGGCAACA,-0.2
14,AGGCGGAA,0.304
15,GGGCGGTA,0.241
16,TCGCACAA,-0.0415
17,ATACATTG,-0.106
18,ATGTAGGC,0.0824
19,CGAATTAG,-0.0466
20,GCGGACTA,0.384
21,CACCTTCG,-0.00119
22,GGGTATAC,0.108
23,TCGCTGAA,-0.0509
24,ATAAGTGG,-0.145
25,AACGTGCG,0.051

row,Sequence,PBM E-score
1,CTACTTCA,-0.119
2,CGCACCAC,0.0811
3,CCCACCCG,0.282
4,AACTTCGT,-0.123
5,GTTTTTGA,-0.0766
6,ATGTACTC,-0.0177
7,ACCCAATG,-0.243
8,ACGGCATC,0.0823
9,GTTGTGCA,-0.199
10,AAGACGGT,-0.232
11,CCGGTGGC,0.304
12,GCCTTCTA,-0.167
13,AGCCTCAA,-0.12
14,ACCTTATC,0.0556
15,ACACCTGA,-0.118
16,ACAGGCAG,-0.256
17,GTTAGCGA,0.0834
18,AAGGAATC,-0.167
19,ATTACCCG,0.213
20,ATGCTTCC,-0.0282
21,ACACGGCA,0.0815
22,CTCCGCTC,0.378
23,TCAGCTCA,0.0396
24,CACTGACA,-0.174
25,CTGTTCAC,-0.336

row,Sequence,PBM E-score
1,CATCAATG,-0.175
2,CTCCGGTA,0.47
3,AAAGTCTG,-0.318
4,CCTTACCC,-0.146
5,CTTCTATA,-0.247
6,CATACGAG,-0.26
7,AATACCCT,0.0258
8,GCGCAGGA,0.0608
9,AAAGCTTG,-0.23
10,GGGTTCTA,-0.0323
11,AAAAGCCC,0.151
12,AGTGAGGA,-0.255
13,AAGGTTGT,-0.221
14,CCCGCACA,0.263
15,TTAACTAA,0.0202
16,AACCTGGG,-0.0591
17,GCAAAGTA,-0.0936
18,TCCCCACA,-0.215
19,ACGGATCA,0.199
20,CCGGTATA,0.316
21,AAATTCTA,-0.257
22,GCTTTGCC,-0.108
